Assay results reported in the RNAGym collection of RNA variant scans (doi:10.1093/nar/gkz1192).
Read counts are not given, so values of variants with three or more changes are uncertain.

B1: CPEB3 Ribozyme (parent)
chain: UAACAGGGGGCCACAGCAGAAGCGUUCACGUCGCAGCCCCUGUCAGAUUCUGGUGAAUCUGCGAAUUCUGCUGUAUAUCUC

Variants of: B1
Experiment: self-cleavage, relative activity (ratio to wild type); higher = more cleavage; in vitro, sequencing
Procedure, shortened: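 After error-prone PCR and barcoding, CPEB3 ribozyme mutant libraries were transcribed with T7 RNA polymerase at 37°C for 5 hours, then given 15 min with DNase I before an EDTA stop, and they cleaved during both steps. Reverse transcription with template switching preceded Illumina sequencing. Relative activity divides a variant's cleaved/total read fraction by the unmutated ribozyme's. At least 5 reads were required per variant, and three batches were averaged.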

Variant	self-cleavage
A18U U26C A57G	0.09
A18U A56G A57G A75U	0.19
A18U U26C U74A	0.3
A18U A47G C50A A64C C81U	0.14
A18U G52A C62G	0.1
A18U G19A U31C A45C A56G U76A	0.12
A18U U31C A47G U58C A64U A77U U78C	0.14
A18U U25C C39U C40U U67A A77G	0.11
A18U C27A A35G U41C U72A	0.05
A18U U31C U49C U69A	0.16
A18U U31C C39U A45G	0.06
A18U U26C A28U U31C	0.21
A18U U26C U41A	0.34
A18U U25C U48G U66C	0.32
A18U U25C U54C U80C	0.18
A18U G33A A47C A57G	0.07
A18U A35U U41C A56U A64U U67A	0.1
A18U U26A C27U A28G U41A G63A	0.09
A18U C38U C81G	0.32
A18U A45U A64G U78C	0.1
A18U U25C A35G A65U U72C	0.06

Variant	self-cleavage
A18U A56G U72C	0.21
A18U A45G U48C U66C	0.09
A18U C40G A57G U60C C62G A65U	0.09
A18U U26A A35G C37A	0.12
A18U A47G U80C	0.63
A18U A45U U51C U72G	0.1
A18U U26C U60C	0.11
A18U A45G A57G U66A	0.13
A18U U25C U66G U67C C81A	0.21
A18U A47G U60C C62U	0.09
A18U C37A C38A U76A U80C	0.06
A18U A56G U76C	0.18
A18U C23U A45C U48C G70U U76A U78C	0.05
A18U U31C A45U U49C	0.18
A18U C37A U43G U60A	0.05
A18U U31C U41A A45U U49C U60A U80A	0.08
A18U G24A G42U A57G	0.16
A18U U26A U31C U41C U60A U72C	0.19
A18U G30A A65G U78C	0.05
A18U U26C A28G U43C A75U	0.07
A18U U25C U31A G52A	0.17

Variant	self-cleavage
A18U A47U U72A	0.38
A18U U31A A47G U51C G63U	0.39
A18U C23U G61A	0.17
A18U C29U A35U U41A A47G A57G G61A	0.05
A18U U31C U41G A65G	0.22
A18U U25C G42A C50A A57G	0.21
A18U A45G U78A	0.46
A18U A64U U72A	0.18
A18U A45G A57G	0.19
A18U G33A U43C G53A A56G U74C A77U	0.04
A18U U26C U51C U78C	0.06
A18U A47G U54C C71A U78A	0.16
A18U A45G A47G U80C	0.22
A18U C39G A45U U54A U58C	0.15
A18U U31A U66C C68U U80C	0.33
A18U U26A U31C U41C U72C	0.12
A18U U26C A47U	0.08
A18U U31C C38U U43A	0.12
A18U U25A U74C	0.31
A18U A57U A75U	0.27
A18U C32G U69A	0.07

Variant	self-cleavage
A18U U26A U66C U72C	0.2
A18U U31A U78A	0.43
A18U A35U U54C A64U	0.14
A18U G33C U43C A56G	0.23
A18U U25C U31C U43C U48C U80C	0.05
A18U C29U G52A U58C U72A U76C	0.1
A18U U26A G52A U69A	1.08
A18U G19U A21U U69A	0.14
A18U A45G A57G A64G	0.33
A18U U26C C27A U31C U78C U80C	0.21
A18U C34A C40U U54C	0.15
A18U C39U A47G G53U U54C	0.15
A18U U25C A28G U31C U43C A57G A65U	0.12
A18U G33A U48C	0.16
A18U C27A U54A A57G U58C U69A	0.1
A18U G36A U41C C59A A77G	0.12
A18U U25C U74C	0.46
A18U U25C U48A C62U	0.04
A18U U31C A56U U72G U74C	0.12
A18U U26C U43G A64U	0.09
A18U A56G U74A U78C	0.59
